# According to PubChem BioAssay AID588855 (National Center for Advancing Translational Sciences (NCATS), 2011):
# Out of some 410,000 compounds screened, about 5,000 (1.2%) were called active. The shares of active, inactive and inconclusive entries below differ from those in the screen. The call rests on the fitted dose curve; in most records, active means well fitted inhibition curve with a large enough effect; inconclusive means small, poorly fitted or top-dose-only effect; inactive means no such curve, though single readings can be large or run the other way. A potency beside an inconclusive call is a rough fit, not a confirmed value.
# Test: qHTS for Inhibitors of TGF-b; further: nearly all actives have a fitted effect of over 65% in size
# Conditions: HepG2 CAGA-GFP TGF-b/SMAD3 reporter, GFP fluorescence, 18 h, TGF-beta stimulated, 500 pg/mL final; series mostly up to 46.1 µM
# How it was run: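 Cell-based qHTS in HEPG2 carrying a CAGA-GFP Smad reporter; compounds added before 500 pg/mL final TGF-beta, 18 h incubation at 37 degrees C, GFP fluorescence quantified per cell by imaging cytometry.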
# Potency means the concentration at half of the fitted maximal effect; tags describe the fitted curve by direction and shape.
row,SMILES,Potency
1,CCC(=O)N1CCc2cc(Br)cc(S(=O)(=O)N3CCC(C(=O)NCCCOC(C)C)CC3)c21,"inconclusive: 35.5 µM [inhibitor, partial curve, poor fit]"
2,CC1CC(=O)Nc2cc([N+](=O)[O-])ccc2N1 (configuration not stated),"inconclusive: 17.8 µM [inhibitor, single point]"
3,Cc1cccc(N2CCN(c3ncnc4c3nc3n4CCCCC3)CC2)c1C,"inconclusive: 1.26 µM [inhibitor, partial curve, poor fit]"
4,N#C[C@]1(S(=O)(=O)c2ccccc2)C[C@@H]2ON=C(c3cccc(Br)c3)[C@@H]2C1,"inconclusive: 12.6 µM [inhibitor, single point]"
5,N#C/C(=C\c1cn(CCOc2ccccc2)c2ccccc12)C(=O)NCc1cccs1,"inconclusive: 7.94 µM [inhibitor, partial curve]"
6,Clc1cc2cccnc2c2ccccc12,inactive
7,C[C@H](CO)N1C[C@H](C)[C@@H](CN(C)C)Oc2c(NC(=O)CCCCCC(=O)Nc3ccccc3N)cccc2C1=O,"inconclusive: 5.62 µM [inhibitor, partial curve]"
8,Cc1cccc(N(CC(=O)NCc2ccccc2)C(=O)CCC(=O)Nc2nccs2)c1,"inconclusive: 0.282 µM [inhibitor, full curve, poor fit]"
9,COc1ccc(Cl)cc1NC(=S)NC(=O)c1ccco1,"inconclusive: 35.5 µM [inhibitor, partial curve, poor fit]"
10,Cc1noc(/C=C/c2cccs2)c1S(=O)(=O)N1CCC(C(=O)Nc2ccc(F)c(Cl)c2)CC1,active: 6.31 µM
11,COc1ccccc1CCNC(=O)C(=O)NCC1OCCN1S(=O)(=O)c1ccc([N+](=O)[O-])cc1 (configuration not stated),inactive
12,N#Cc1ccc(CN2CCN(C(=O)c3cc(Cl)c4c(c3)OCCO4)CC2)cc1,"inconclusive: 35.5 µM [inhibitor, single point]"
13,Cc1cc(C)c2sc(N(CCCN(C)C)C(=O)c3ccc(Br)s3)nc2c1,"inconclusive: 22.4 µM [inhibitor, single point]"
14,O=C(NCC(=O)N(c1cccc(F)c1)C(C(=O)NC1CCCC1)c1ccco1)c1ccco1 (configuration not stated),"inconclusive: 35.5 µM [inhibitor, single point]"
15,Cc1cccc(OCCCC(=O)Nc2nc3ccccc3[nH]2)c1,"inconclusive: 5.62 µM [inhibitor, single point]"
16,O=C1Nc2ccccc2C1=Nc1ccc(S(=O)(=O)Nc2nccs2)cc1,"inconclusive: 25.1 µM [inhibitor, single point]"
17,Cc1ccc([C@H]2C(C(=O)O)=CC[C@@H](c3ccc(Cl)cc3)N2S(=O)(=O)c2ccc(C)cc2)cc1,"inconclusive: 35.5 µM [inhibitor, single point]"
18,COCCNC(=O)Cn1cnc2sc(C)c(S(=O)(=O)N3CCC(C)CC3)c2c1=O,"inconclusive: 35.5 µM [inhibitor, single point]"
19,Cc1ccc(-c2cc3ccccc3nc2N2CCOCC2)cc1,inactive
20,CCOc1cc(/C=C2\C(=O)ON=C2c2ccccc2)ccc1OC,"inconclusive: 15.8 µM [inhibitor, partial curve, poor fit]"
21,COc1ccc(CNC(=O)CN2C(=O)NC(Cc3ccccc3)(c3ccccc3)C2=O)cc1OC (configuration not stated),inactive

row,SMILES,Potency
1,Cc1ccc(Nc2c(-c3cccs3)nc3nc(C)cc(C)n23)cc1,"inconclusive: 10 µM [inhibitor, partial curve, poor fit]"
2,CC1(C(=O)N/N=C/c2ccc([N+](=O)[O-])o2)CC1(Br)Br (configuration not stated),active: 11.2 µM
3,COC(=O)C1(C)NC(c2ccc(Cl)cc2)C2C(=O)N(c3ccccc3)C(=O)C21 (configuration not stated),"inconclusive: 15.8 µM [inhibitor, single point]"
4,CN(CC(=O)Nc1cccc(F)c1)CC(=O)Nc1cccc(S(=O)(=O)N2CCCCCC2)c1,"inconclusive: 17.8 µM [inhibitor, partial curve, poor fit]"
5,COc1ccc(-c2cc(C(F)(F)F)nc(S(=O)(=O)CCCC(=O)Nc3cccc(O)c3)n2)cc1OC,active: 3.55 µM
6,N#Cc1nc(-c2ccc(F)cc2)oc1N1CCCCC1,inactive
7,COc1cc(CC(=O)Nc2nc(-c3ccc(F)c(F)c3)cs2)cc(OC)c1OC,active: 11.2 µM
8,COc1ccc(Cl)cc1NC(=O)c1cnccn1,inactive
9,O=S(=O)(c1cccs1)n1nnc2ccccc21,"inconclusive: 12.6 µM [inhibitor, partial curve, poor fit]"
10,CC(Sc1nn(-c2ccc(F)cc2)c(=S)s1)C(=O)c1c(N)n(C)c(=O)n(C)c1=O (configuration not stated),"inconclusive: 35.5 µM [inhibitor, single point]"
11,CCCCc1cc(=O)oc2cc(C)cc(OCC(=O)NC(Cc3ccc(Cl)cc3)C(=O)O)c12 (configuration not stated),inactive
12,Cc1cccc(N2CCN(c3nc4ccccc4n4cnnc34)CC2)c1C,inactive
13,Cc1nc(C)c(C(=O)Nc2ccccc2)s1,inactive
14,COc1cc(NC(=O)c2cc(-c3cccs3)on2)cc(OC)c1OC,inactive
15,CCOc1ccc(S(=O)(=O)NCCc2sc3nc(-c4ccc(F)cc4)nn3c2C)cc1,"inconclusive: 15.8 µM [inhibitor, partial curve, poor fit]"
16,COc1ccccc1N1CCN(C(=O)c2oc3c(c2C)C(=O)CC(C)(C)C3)CC1,inactive
17,COC(=O)c1cc(=O)n(Cc2cccs2)c(=Nc2ccccc2)s1,"inconclusive: 17.8 µM [inhibitor, single point]"
18,CCOc1ccc(CCNC(=O)c2cn(CC)c3ccc(S(=O)(=O)N4CCc5ccccc5C4)cc3c2=O)cc1OCC,"inconclusive: 7.08 µM [inhibitor, full curve, poor fit]"
19,O=C(Nc1ccccc1-c1cn2c(CN3CCNCC3)csc2n1)c1cnc2ccccc2n1,"inconclusive: 35.5 µM [inhibitor, single point]"
20,CCn1c2ccccc2c2cc(CN3CCN(Cc4ccccc4F)CC3)ccc21,"inconclusive: 35.5 µM [inhibitor, single point]"
21,CCOC(=O)COc1cc(-n2c(=S)[nH]c3ccccc3c2=O)c(Cl)cc1Cl,inactive
